Experimental data: PubChem BioAssay AID651820 (National Center for Advancing Translational Sciences (NCATS), 2012)
Values joined by “and” are separate entries in the source; they are usually repeats but may differ in a detail not shown here. Equal values may be shown once. Screen size: about 340,000 compounds; about 12,000 (3.5%) were called active. The inconclusive results got no clear call from the source; some entries with a clear call stand among them for comparison. Calls come from the whole dose curve; as a rule, active = well fitted inhibition curve with a large enough effect; inconclusive = small, poorly fitted or top-dose-only effect, or another doubt; inactive = no such curve, though single readings can be large or run the other way. Potencies of inconclusive entries are doubtful fits and often do not repeat.

experiment: qHTS Assay for Inhibitors of Hepatitis C Virus (HCV); conditions: Huh7.5.1 HCVcc-Cre (HCVcc is cell-culture hepatitis C virus) infection, luciferase reporter, 44 h; activity change, negative = inhibition: at 41.8 µM (top of the series)
In short: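 Seed cells (1,000/well) for 4 h; treat with compound and infect with HCVcc-Cre, moi about 0.5. Incubate 44 h, then detect luciferase activity.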
% is set by controls: 0 for no effect and ±100 for the full control effect; potency is the fitted concentration of half-maximal effect; tags give direction and shape of the fitted curve.

Question: With `CCn1c(=S)sc2c(=O)n(CC(=O)NC(C)CCc3ccccc3)c(C)nc21` (stereo unspecified) as the molecule, how does the Potency read?
Answer: inconclusive: 14.1 µM [inhibitor, single point]

Question: With `CC(C)c1ccc(OCCCCCN2CCOCC2)cc1` as the molecule, how does the Potency read?
Answer: inactive

Question: Which Potency does the source give for `Cc1ccc(NC(=O)c2ccc(S(=O)(=O)NCc3ccco3)cc2)nc1` here?
Answer: inconclusive: 5.01 µM [inhibitor, single point]

Question: For `CC(C)(C)C(=O)NCC12C=CC(O1)C1C(=O)N(c3ccccc3)C(=O)C12` (stereo unspecified), which Potency is on record?
Answer: inactive

Question: Which Potency does the source give for `COc1ccc([C@@H]2[C@@H]3C(=O)N(C(C)(C)C)C(=O)[C@@H]3[C@]3(CC(C)C)C(=O)N(c4ccc(C(F)(F)F)cc4)C(=O)N23)cc1` here?
Answer: inactive

Question: With `COc1ccc(C(=O)Nc2ccc3ccccc3n2)cc1OC` as the molecule, how does the Potency read?
Answer: inconclusive: 10 µM [inhibitor, single point]

Question: With `Cc1ccc(NC(=O)CSc2nnc(-c3cnccn3)n2Cc2ccco2)cc1C` as the molecule, how does the Potency read?
Answer: inconclusive: 20 µM [inhibitor, single point]

Question: Which Potency does the source give for `Cc1[nH]c2ccccc2c1C(=O)CN1C(=O)NC(C)(c2ccc(Cl)cc2Cl)C1=O` (stereo unspecified) here?
Answer: inconclusive: 12.6 µM [inhibitor, single point]

Question: For `Fc1cccc(F)c1-n1c(CN2CCCCC2)csc1=S`, which Potency is on record?
Answer: inconclusive: 31.6 µM [inhibitor, single point]

Question: For `CCn1c(=N)n(CC(=O)c2ccc(Cl)c(Cl)c2)c2ccccc21`, which Potency is on record?
Answer: inconclusive: 35.5 µM [inhibitor, single point]

Question: Which Potency does the source give for `Nc1sc(-c2ccccc2)cc1C(=O)N/N=C/c1ccc(Cl)cc1` here?
Answer: inactive

Question: For `COc1ccc(NS(=O)(=O)c2cc(NC(=O)C3CCCCC3)ccc2N2CCOCC2)cc1`, which Potency is on record?
Answer: inconclusive: 10 µM [inhibitor, single point]

Question: With `CCN(CC)S(=O)(=O)c1ccc(OC(C)C)c(NC(=O)c2c3c(nc4ccccc24)CCN(Cc2ccccc2)C3)c1` as the molecule, how does the Potency read?
Answer: inconclusive: 11.2 µM [inhibitor, partial curve] and inconclusive: 7.08 µM [inhibitor, partial curve]

Question: With `Cc1nc2ncccn2c1-c1csc(NCc2ccco2)n1` as the molecule, how does the Potency read?
Answer: inconclusive: 31.6 µM [inhibitor, single point]

Question: With `COc1ccc(C(C)(C)C)cc1NC(=O)CNc1cccc2ccccc12` as the molecule, how does the Potency read?
Answer: inconclusive: 6.31 µM [inhibitor, partial curve]

Question: For `Cc1cc(-c2nnc3n2N=C(c2ccccc2)CS3)n[nH]1`, which activity change, negative = inhibition is on record?
Answer: inconclusive: -34.6% [inhibitor]

Question: With `COc1ccccc1CNC(=O)c1ccc2c(=O)n(CC3CCCO3)c(=S)[nH]c2c1` (stereo unspecified) as the molecule, how does the Potency read?
Answer: inconclusive: 10 µM [inhibitor, partial curve]

Question: For `CCSC1=C(C#N)C2(CCCCC2)C2=C(CC(C)(C)CC2=O)N1`, which Potency is on record?
Answer: inactive

Question: For `CC(=O)Nc1sc(NC(=O)c2ccc(Cl)cc2)nc1-c1cccs1`, which Potency is on record?
Answer: inconclusive: 1 µM [inhibitor, full curve]

Question: With `CCNc1nc(Oc2ccc(OC)cc2)cc(C(F)(F)F)n1` as the molecule, how does the Potency read?
Answer: inconclusive: 5.01 µM [inhibitor, partial curve]

Question: For `C=CCOc1ccc(/C=C2\SC(N3CCCCC3)=NC2=O)cc1`, which Potency is on record?
Answer: inconclusive: 12.6 µM [inhibitor, partial curve]

Question: For `Cc1cc(NC(=O)CS(=O)(=O)c2cn(Cc3cccc(F)c3)c3ccccc23)no1`, which Potency is on record?
Answer: inconclusive: 15.8 µM [inhibitor, single point]

Question: With `COc1ccc(NS(=O)(=O)c2cccc(C(=O)N/N=C/c3ccccn3)c2)cc1` as the molecule, how does the Potency read?
Answer: inactive

Question: With `CC[C@@H]1Cc2cc(O)ccc2C2=C1c1ccc(O)cc1C[C@H]2CC` as the molecule, how does the Potency read?
Answer: active: 3.16 µM

Question: For `CCCS(=O)(=O)c1c(S(=O)(=O)CCC)c2c(N)cccn2c1C(=O)c1ccc(OC)cc1`, which Potency is on record?
Answer: active: 25.1 µM

Question: For `Cc1ccc(-c2csc(N3CCN(c4cc5c(cc4Cl)nc(C)n5CCN4CCCCC4)CC3)n2)cc1`, which Potency is on record?
Answer: inconclusive: 10 µM [inhibitor, single point]

Question: For `CCN(CC)S(=O)(=O)c1ccc(N2CCN(S(=O)(=O)c3ccc4c(c3)OCCO4)CC2)nc1`, which Potency is on record?
Answer: inconclusive: 31.6 µM [inhibitor, single point]

Question: For `c1ccc2c(c1)N1CCCN=C1N2CCN1CCCCC1`, which Potency is on record?
Answer: inconclusive: 31.6 µM [inhibitor, single point]

Question: With `C=CCn1c(C)cc(C(=O)CN2NS(=O)(=O)c3ccccc3C2=O)c1C` as the molecule, how does the Potency read?
Answer: inconclusive: 31.6 µM [inhibitor, single point]

Question: For `O=C(CSc1nncs1)Nc1nnc(-c2ccccc2)o1`, which Potency is on record?
Answer: inactive

Question: With `COc1ccccc1C(=O)N1CCN(c2cccc(C(F)(F)F)c2)CC1` as the molecule, how does the Potency read?
Answer: inconclusive: 2.51 µM [inhibitor, partial curve, poor fit]

Question: For `Cc1cccc(N(C(=O)c2snc(C(N)=O)c2N)C(C(=O)NCC2CCCO2)c2c[nH]c3ccccc23)c1` (stereo unspecified), which Potency is on record?
Answer: inconclusive: 3.98 µM [inhibitor, full curve, poor fit]

Question: Which Potency does the source give for `Cc1ccc(OCCSc2ncnc3nc[nH]c23)cc1` here?
Answer: inconclusive: 10 µM [inhibitor, partial curve]

Question: With `COc1ccccc1C(=O)N1c2ccccc2Sc2ccccc21` as the molecule, how does the Potency read?
Answer: inconclusive: 31.6 µM [inhibitor, single point]

Question: For `O=C(Nc1ccccc1C(=O)N/N=C/c1ccco1)c1ccc(F)cc1`, which Potency is on record?
Answer: inactive

Question: For `O=C1NC(=S)/C(=C\c2ccc(-c3ccccc3Cl)o2)S1`, which Potency is on record?
Answer: inconclusive: 11.2 µM [inhibitor, single point]

Question: Which Potency does the source give for `CCCn1c(-c2cccc([N+](=O)[O-])c2)nc2c1c(=O)[nH]c(=O)n2Cc1ccccc1` here?
Answer: inconclusive: 14.1 µM [inhibitor, partial curve]

Question: With `O=C1NC(c2ccc(O)cc2)Nc2ccccc21` (stereo unspecified) as the molecule, how does the Potency read?
Answer: inconclusive: 31.6 µM [inhibitor, single point]

Question: With `Cn1c(/C=C/N(Cc2ccccc2)c2ccccc2)c([N+](=O)[O-])c(=O)n(C)c1=O` as the molecule, how does the Potency read?
Answer: inconclusive: 31.6 µM [inhibitor, single point]

Question: With `Nc1ncnc2c1ncn2[C@@H]1O[C@H](CO)C[C@H]1O` as the molecule, how does the Potency read?
Answer: active: 10 µM

Question: With `Fc1ccccc1CSc1nnc(-c2ccccc2)o1` as the molecule, how does the Potency read?
Answer: inconclusive: 35.5 µM [inhibitor, single point]

Question: For `COc1cc(C#Cc2c(-c3cncn3C)n(C)c3ccc(-c4ccc(CN5CCOCC5)cc4)cc23)cc(OC)c1`, which Potency is on record?
Answer: active: 11.2 µM

Question: Which Potency does the source give for `COc1cc(OC)cc(C(=O)O/N=C(\N)c2ccccn2)c1` here?
Answer: inconclusive: 31.6 µM [inhibitor, single point]

Question: For `COc1ccc2c(c1)C(=NNC(=O)c1ccccn1)c1cc(OC)ccc1-2`, which Potency is on record?
Answer: inconclusive: 1.78 µM [inhibitor, single point]

Question: For `COc1ccc(C(=O)C2CCCN(Cc3cc(C)c(O)c(C)c3)C2)c(OC)c1` (stereo unspecified), which Potency is on record?
Answer: inconclusive: 11.2 µM [inhibitor, single point]

Question: For `CC1(C)OC(=O)C(=CNC(CCC(N)=O)C(=O)O)C(=O)O1` (stereo unspecified), which Potency is on record?
Answer: inactive

Question: With `COc1cc(/C=c2\s/c(=C\C(=O)C(C)(C)C)[nH]c2=O)cc(OC)c1OC` as the molecule, how does the Potency read?
Answer: inconclusive: 0.794 µM [inhibitor, full curve]

Question: For `CCOc1ccc(C(=O)Nc2cc(OC)ccc2OC)cc1`, which Potency is on record?
Answer: active: 8.91 µM

Question: With `c1ccc2[nH]c(CSc3nc4ccccc4o3)nc2c1` as the molecule, how does the Potency read?
Answer: inconclusive: 7.08 µM [inhibitor, partial curve]

Question: Which Potency does the source give for `CC1(C)Cc2nc3oc4c(N(CCO)Cc5ccccc5)ncnc4c3cc2CO1` here?
Answer: inconclusive: 3.55 µM [inhibitor, single point]

Question: Which Potency does the source give for `CC(C)(C)C(=O)OCOC(=O)[C@@H]1N2C(=O)[C@@H](N=CN3CCCCCC3)[C@H]2SC1(C)C` here?
Answer: active: 0.501 µM

Question: For `CC12CCCCC1(O)[N+](=O)C1=C(CCCC1)N2[O-]` (stereo unspecified), which Potency is on record?
Answer: inactive

Question: Which Potency does the source give for `Cc1ccsc1C(=O)Nc1ccccc1N1CCOCC1` here?
Answer: inconclusive: 7.94 µM [inhibitor, partial curve]

Question: With `Cc1ccc(S(=O)(=O)NC(C)C(c2cccs2)N2CCN(c3ccccc3)CC2)cc1` (stereo unspecified) as the molecule, how does the Potency read?
Answer: inconclusive: 20 µM [inhibitor, single point]

Question: With `C/C(=N\Nc1ccc(F)cc1F)c1ccccc1O` as the molecule, how does the Potency read?
Answer: inconclusive: 0.501 µM [inhibitor, full curve, poor fit]

Question: For `COc1ccc(Cl)cc1NC(=O)CN1CCN(S(=O)(=O)N2CCC(C)CC2)CC1`, which Potency is on record?
Answer: inconclusive: 14.1 µM [inhibitor, single point]

Question: For `C[C@@H](C(=O)NCc1c(F)cccc1Cl)N1C(=O)N2CCc3c([nH]c4ccccc34)[C@@]2(C)C1=O`, which Potency is on record?
Answer: active: 11.2 µM

Question: For `COc1ccccc1-c1nnc(NC(=O)c2ccc(S(=O)(=O)N3CCOCC3)cc2)o1`, which Potency is on record?
Answer: inactive

Question: With `CC(=O)Nc1nc2ccc(Br)cc2s1` as the molecule, how does the Potency read?
Answer: inconclusive: 12.6 µM [inhibitor, partial curve]

Question: With `COc1ccc2sc(-c3ccc(N(C)C)cc3)c(C#CC(C)(C)O)c2c1` as the molecule, how does the Potency read?
Answer: active: 3.16 µM

Question: For `N#Cc1ccc(C(=O)Nc2cc(S(=O)(=O)Nc3ccc(Cl)cc3)ccc2N2CCCCC2)cc1`, which Potency is on record?
Answer: inconclusive: 11.2 µM [inhibitor, partial curve]

Question: Which Potency does the source give for `CC(=O)C1=C(C)N(Cc2ccccc2)C(=O)N[C@H]1c1cccc(C(F)(F)F)c1` here?
Answer: inconclusive: 0.316 µM [inhibitor, full curve, poor fit]

Question: Which Potency does the source give for `CC(C(=O)Nc1ccc([N+](=O)[O-])cc1Cl)N1CCN(S(=O)(=O)c2cccs2)CC1` (stereo unspecified) here?
Answer: inconclusive: 4.47 µM [inhibitor, partial curve]

Question: Which Potency does the source give for `CCOC(=O)c1cc(CC)sc1NC(=O)c1ccc(N2CCOCC2)c([N+](=O)[O-])c1` here?
Answer: inconclusive: 2 µM [inhibitor, full curve, poor fit]

Question: For `CC1CCN(C(=O)COc2ccc(S(=O)(=O)N3CCCC3)cc2)CC1`, which Potency is on record?
Answer: inactive

Question: For `O=C(c1cc(C2CC2)nn1-c1ccccc1)N1CCN(Cc2ccc(Cl)cc2)CC1`, which Potency is on record?
Answer: active: 7.08 µM
